Laboratory results as given in PubChem BioAssay AID624172 (National Center for Advancing Translational Sciences (NCATS), 2012).
Among all 380,000 compounds or so, about 25 (0.007%) were called active. Inconclusive means that the source gave no clear call. Such entries were picked first, then a sample of the others. Calls come from the whole dose curve; as a rule, active = well fitted activation curve with a large enough effect; inconclusive = small, poorly fitted or top-dose-only effect; inactive = no such curve, though single readings can be large or run the other way. Potencies of inconclusive entries are left out as doubtful fits.

The compounds below were run against Glucagon-like peptide 1 receptor (Homo sapiens) (UniProt P43220) (assay: qHTS of GLP-1 Receptor Agonists). Settings: HEK293 GLP-1R CRE-luciferase, luminescence, 4-6 h, cells express a hypersensitive GLP-1R form; activation: at 45.6 µM (top of the series) unless noted.
Sequence of UniProt P43220 (P43220 whole entry, looked up): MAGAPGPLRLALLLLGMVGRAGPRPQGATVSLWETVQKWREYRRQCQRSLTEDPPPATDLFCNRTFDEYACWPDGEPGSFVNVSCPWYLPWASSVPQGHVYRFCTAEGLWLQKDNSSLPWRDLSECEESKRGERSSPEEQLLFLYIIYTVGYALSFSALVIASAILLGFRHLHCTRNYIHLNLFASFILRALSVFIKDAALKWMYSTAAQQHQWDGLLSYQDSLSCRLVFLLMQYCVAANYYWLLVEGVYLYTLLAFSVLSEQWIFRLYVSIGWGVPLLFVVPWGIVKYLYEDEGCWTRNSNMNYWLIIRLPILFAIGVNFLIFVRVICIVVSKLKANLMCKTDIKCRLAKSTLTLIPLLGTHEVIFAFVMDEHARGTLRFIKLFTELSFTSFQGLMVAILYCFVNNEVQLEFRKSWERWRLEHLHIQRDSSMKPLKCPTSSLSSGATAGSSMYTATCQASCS
From the text: The overall goal of this project was to develop a novel assay for discovering small molecule ligands for class B1 G protein-coupled receptors (GPCRs). Very few agonists (or inverse agonists) with generally weak activity for this entire group of physiologically important receptors are known to date. To establish proof-of-principle that this critical bottleneck can be overcome with a suitable screening approach, our studies focused on the class B1 receptor for glucagon-like peptide-1 (GLP-1R), a potential therapeutic target for diabetes and neurodegenerative disease.
The assay was developed in a "mix and measure" format using a cell-based functional readout. Toward this goal, stably transfected HEK293 cell clones were established that co-express (i) a cAMP-responsive luciferase reporter gene, and (ii) GLP-1Rs that upon ligand interaction either stimulate (agonists) or inhibit (inverse agonists) luciferase activity. In different cell lines to be used for screening, expressed GLP-1Rs are specifically optimized for high sensitivity detection of either weak agonists (hypersensitive receptor) or inverse agonists (constitutively active receptor mutant). In addition, control cell lines were developed that express either the cAMP-responsive reporter gene without recombinant GLP-1Rs (enabling initial exclusion of GLP-1R independent effects of candidate probes), or the reporter gene together with wild type GLP-1Rs (for confirmation of probe activity at this receptor), or the reporter gene in combination with the constitutively active orphan receptor GPR119 (enabling initial exclusion of GLP-1R independent inhibitory effects of candidate inverse agonists).
To that end, this assay was optimized for 1536-well format and screened against the MLSMR.
NIH Molecular Libraries Probe Production Network [MLPCN]
NIH Chemical Genomics Center [NCGC]
PI Name: Martin Beinborn, Tufts Medical Center
In a white solid 1536-well plate, 6 uL of cells are dispensed in DMEM without phenol red, 10% Nu serum, and 1% pen-strep medium. The plates are then incubated for 12 hours at 37 deg C at 5% CO2 before 23 nL of compounds are added. After a 4-6 hr incubation at37 deg C and 5% CO2, 3 uL of detection reagent are added and after a 12 min incubation at RT, a luminescent read is obtained on the ViewLux.
Potency is the fitted concentration of half-maximal effect; tags give direction and shape of the fitted curve.
Throughout, for activation: % of control where 0% means no effect.

Q: For `Cc1ccc(-c2nnc(SCc3ccccc3C)o2)cc1`, which “activation” value is on record?
A: Its value is inactive: 4.83%.

Q: How did the Potency turn out when `COc1ccc2[nH]c3c(c2c1)CCN1C(=O)N([C@@H](C)C(=O)NCc2ccc(C)cc2)C(=O)[C@]31C` was run?
A: The Potency was inconclusive [activator, partial curve, poor fit].

Q: `Cc1ccc2oc(-c3ccc(NC(=O)c4ccc5c(c4)OCO5)cc3)nc2c1` was tested. Which “activation” value did it give?
A: The value was inactive: -2.57%.

Q: With `COc1ccc(/C=N/n2c(SC)nnc2-c2ccccc2)cc1C` as the compound, how does the Potency read?
A: The Potency was inconclusive [activator, single point].

Q: With `COc1ccc(C(=O)Oc2c(OC)cc(C(=S)N3CCOCC3)cc2OC)cc1OC` as the compound, how does the “activation” value read?
A: Its value is inactive: 5.86%.

Q: With `CSc1nc(N)nc(-c2cccs2)c1C#N` as the compound, how does the Potency read?
A: The Potency was inconclusive [activator, single point].

Q: `CCOC(=O)C1=C(CSc2nc(-c3ccncc3)ccc2C#N)OC(N)=C(C#N)C1c1cccnc1` (stereo not given) was tested. Which Potency did it give?
A: Its Potency is inconclusive [activator, single point].

Q: For `CCOc1ccc(Nc2nc(N)nc(CCl)n2)cc1`, which Potency is on record?
A: The Potency was inconclusive [activator, single point].

Q: With `c1ccc2[nH]ccc2c1` as the compound, how does the “activation” value read?
A: Its value is inactive: 4.1%.

Q: With `CC(NC(=O)COC(=O)C1=NN(c2ccccc2)C(=O)CC1)c1ccccc1` (stereo not given) as the compound, how does the “activation” value read?
A: The value was inactive: -5.9%.

Q: How did the Potency turn out when `Cc1ccc(S(=O)(=O)O/N=C2\CCCc3ccccc32)cc1` was run?
A: Its Potency is inconclusive [activator, single point].

Q: For `O=C(c1ccc2ccccc2c1O)N1CCCCC1`, which Potency is on record?
A: The Potency was inconclusive [activator, partial curve, poor fit].

Q: With `CCN(CC)CCNC(=S)Nc1ccc2nc(N3CCN(CC)CC3)cc(C)c2c1` as the compound, how does the “activation” value read?
A: Its value is inactive: 5.63%.

Q: Which “activation” value does the source give for `O=C(OCc1cccc(Cl)c1)c1cc(S(=O)(=O)N2CCCCC2)ccc1N1CCOCC1` here?
A: Its value is inactive: 1.98%.

Q: How did the “activation” value turn out when `O=C(CSc1nnc(CCCN2C(=O)c3cccc4cccc(c34)C2=O)n1-c1ccccc1)N1CCN(CCO)CC1` was run?
A: Its value is inactive: 21.7%.

Q: `COc1ccccc1-c1cc(-c2cc(Cl)ccc2O)n[nH]1` was tested. Which “activation” value did it give?
A: Its value is inactive: -9.02%.

Q: `COc1ccc(Nc2ncnc3onc(C)c23)cc1Cl` was tested. Which Potency did it give?
A: The Potency was inconclusive [activator, partial curve, poor fit].

Q: How did the Potency turn out when `N#Cc1c(-c2ccco2)cc(-c2cccnc2)nc1N` was run?
A: The Potency was inconclusive [activator, single point].

Q: Which Potency does the source give for `CCOc1c(OC)ccc2c3c(c(=O)oc12)CCCC3` here?
A: The Potency was inconclusive [activator, single point].

Q: `Oc1cccc(C(O)CNCc2ccc(OCc3ccc(Cl)cc3Cl)cc2)c1` (stereo not given) was tested. Which Potency did it give?
A: Its Potency is inconclusive [activator, partial curve].

Q: `OC(CN1C2=NCCN2c2ccccc21)c1ccc(Br)cc1` (stereo not given) was tested. Which “activation” value did it give?
A: Its value is inactive: 5.04%.

Q: How did the “activation” value turn out when `Cc1cc(C)c2nc(N3CCC(C(=O)NCC4CCCO4)CC3)sc2c1` (stereo not given) was run?
A: The value was inactive: -0.698%.

Q: Which “activation” value does the source give for `CC(C)(C)OC(=O)N(Cc1ccccc1)Cc1cccc(OCc2cccc(NC(=O)C3CC3)c2)c1` here?
A: Its value is inactive: -0.293%.

Q: Which Potency does the source give for `c1ccc(Nc2c3c(nc4ncnn24)CCC3)cc1` here?
A: Its Potency is inconclusive [activator, partial curve, poor fit].

Q: For `CC(C)c1ccc(/C=C/C(=O)Nc2nc3ccc([N+](=O)[O-])cc3s2)cc1`, which “activation” value is on record?
A: The value was inactive: -11.6%.

Q: How did the “activation” value turn out when `Cc1ccc2c(c1)N(C(=O)CCC(=O)NC1CCN(Cc3ccccc3)CC1)CC(C)O2` (stereo not given) was run?
A: The value was inactive: -5.22%.

Q: For `N#Cc1cccn1-c1nccc(-c2cccs2)n1`, which Potency is on record?
A: Its Potency is inconclusive [activator, partial curve, poor fit].

Q: Which “activation” value does the source give for `CCOc1ccc(N(Cc2cc3cc(OC)ccc3[nH]c2=O)S(C)(=O)=O)cc1` here?
A: Its value is inactive: 25.7%.

Q: `CC(=O)Nc1ccc(-c2ccnc3c2CC(C(=O)NCc2cccc(Cl)c2)O3)cc1` (stereo not given) was tested. Which Potency did it give?
A: Its Potency is inconclusive [activator, single point].

Q: `Cc1nc2c(C)cccc2cc1C(=O)N/N=C/c1cccnc1` was tested. Which “activation” value did it give?
A: Its value is inactive: 4.89%.

Q: With `Fc1ccc(Nc2cccc3nccnc23)cc1` as the compound, how does the Potency read?
A: Its Potency is inconclusive [activator, single point].

Q: Which activation does the source give for `CCOC(=O)c1cc(-c2cccc(C(F)(F)F)c2)nc2nc(SC)[nH]c(=O)c12` here?
A: The activation was inconclusive: 59.4% [activator].

Q: For `CCc1cc(=O)oc2c3c(cc(OCC(=O)NC4CC4)c12)OC(C)(C)CC3`, which Potency is on record?
A: The Potency was inconclusive [activator, partial curve, poor fit].

Q: `CCOC(=O)c1sc(Nc2cccc(Cl)c2)nc1C` was tested. Which Potency did it give?
A: The Potency was inconclusive [activator, partial curve, poor fit].

Q: How did the Potency turn out when `COc1ccc2[nH]cc(CCNC(=O)COc3ccc4ccc(=O)oc4c3)c2c1` was run?
A: The Potency was inconclusive [activator, partial curve, poor fit].

Q: With `COc1ccc(/C=N/NC(=O)CCSc2nc3ccccc3s2)cc1OC` as the compound, how does the Potency read?
A: Its Potency is inconclusive [activator, partial curve, poor fit].

Q: Which Potency does the source give for `COc1ccc(-c2nc(-c3cccs3)c(-c3cccs3)[nH]2)cc1O` here?
A: Its Potency is inconclusive [activator, partial curve, poor fit].

Q: With `CC(=O)N1CN(CCCn2ccnc2)Cc2c1sc1c2CCCC1` as the compound, how does the Potency read?
A: The Potency was inconclusive [activator, single point].

Q: With `CC(C)(C)C(=O)N1CCN(c2ccc([N+](=O)[O-])c(NCC3CCCO3)c2)CC1` (stereo not given) as the compound, how does the activation read?
A: Its activation is inconclusive: 37.1% [activator].

Q: For `CC(=O)[C@@]1(O)CC[C@H]2[C@H]3C[C@@H](C)C4=CC(=O)C=C[C@]4(C)[C@@]3(F)[C@@H](O)C[C@]21C`, which “activation” value is on record?
A: The value was inactive: -4.12% [at 19.8 µM].

Q: Which Potency does the source give for `CC(C)(C)c1ccc(C(=O)O/N=C(\N)Cc2cccs2)cc1` here?
A: The Potency was inconclusive [activator, partial curve].

Q: For `COc1cc(SC)ccc1C(=O)NCCOc1ccccc1Cl`, which Potency is on record?
A: Its Potency is inconclusive [activator, single point].

Q: For `Cc1nc(C)c(-c2csc(Nc3cccc(O)c3)n2)s1`, which Potency is on record?
A: Its Potency is inconclusive [activator, partial curve].

Q: How did the Potency turn out when `COc1cc(NC(=O)CCN2CCN(C)CC2)cc(OC)c1` was run?
A: The Potency was inconclusive [activator, full curve, poor fit].

Q: Which Potency does the source give for `Cn1c2ccccc2c(=O)c2cc(C#Cc3cccc(N)c3)ccc21` here?
A: The Potency was inconclusive [activator, partial curve, poor fit].
